Data published in the supplement of paper PMC4967469.

Tests used:
Experiment in all cases: Viability of human cancer cell lines after 72 h of drug (GDSC screen)
JW-7-52-1 = compound: CCC(=O)N1CCN(c2ccc(-n3c(=O)ccc4cnc5ccc(-c6cnc7ccccc7c6)cc5c43)cc2C(F)(F)F)CC1 [JW-7-52-1]; conditions: top dose 1.2 µM; top dose inferred
Method: (§1)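 Human cancer cell lines in 384-well plates, medium with 10% serum, drug for 72 h over a 256-fold dose range (nine 2-fold or five 4-fold steps up to the top dose). Adherent lines were fixed and stained with the nucleic acid dye Syto60, suspension lines read with resazurin; signal relative to control wells, capped at 0 and 100%. One two-parameter sigmoid per drug and line, fitted in a mixed model over all curves with the slope shared within a line.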

Rapamycin = compound: CO[C@H]1C[C@@H]2CC[C@@H](C)[C@@](O)(O2)C(=O)C(=O)N2CCCC[C@H]2C(=O)O[C@H]([C@H](C)C[C@@H]2CC[C@@H](O)[C@H](OC)C2)CC(=O)[C@H](C)/C=C(\C)[C@@H](O)[C@@H](OC)C(=O)[C@H](C)C[C@H](C)/C=C/C=C/C=C/1C [Rapamycin]; conditions: top dose 0.1 µM; top dose inferred
Method: as §1

Tubastatin A = compound: CN1CCc2c(c3ccccc3n2Cc2ccc(C(=O)NO)cc2)C1 [Tubastatin A]; conditions: top dose 20 µM
Method: as §1

Temozolomide = compound: Cn1nnc2c(C(N)=O)ncn2c1=O [Temozolomide]; conditions: top dose 30 µM
Method: as §1

Z-LLNle-CHO = compound: CCCC[C@@H](C=O)NC(=O)[C@H](CC(C)C)NC(=O)[C@H](CC(C)C)NC(=O)OCc1ccccc1 [Z-LLNle-CHO]; conditions: top dose 2.56 µM; top dose inferred
Method: as §1

XL-880 = compound: COc1cc2c(Oc3ccc(NC(=O)C4(C(=O)Nc5ccc(F)cc5)CC4)cc3F)ccnc2cc1OCCCN1CCOCC1 [XL-880]; conditions: top dose 5.12 µM; top dose inferred
Method: as §1

IPA-3 = compound: Oc1ccc2ccccc2c1SSc1c(O)ccc2ccccc12 [IPA-3]; conditions: top dose 32 µM; top dose inferred
Method: as §1

CI-1040 = compound: O=C(NOCC1CC1)c1ccc(F)c(F)c1Nc1ccc(I)cc1Cl [CI-1040]; conditions: top dose 10 µM; top dose inferred
Method: as §1

Cell Line | AUC (JW-7-52-1) | IC50 (JW-7-52-1) [nM] | AUC (Rapamycin) | IC50 (Rapamycin) [nM] | AUC (Tubastatin A) | IC50 (Tubastatin A) [nM] | AUC (Temozolomide) | IC50 (Temozolomide) [nM] | AUC (Z-LLNle-CHO) | IC50 (Z-LLNle-CHO) [nM] | AUC (XL-880) | IC50 (XL-880) [nM] | AUC (IPA-3) | IC50 (IPA-3) [nM] | AUC (CI-1040) | IC50 (CI-1040) [nM]
NCI-H1836 (small cell lung carcinoma, suspension) | 0.912 | > 1200 | 0.936 | > 100 | 0.937 | > 20000 | 0.936 | > 30000 | 0.966 | > 2560 | 0.87 | > 5120 | 0.969 | > 32000 | 0.985 | > 10000
RF-48 (stomach, adherent) | 0.55 | 105 | 0.737 | 32.7 | 0.856 | 19300 | 0.976 | > 30000 | 0.803 | 1450 | 0.604 | 639 | 0.703 | 8090 | 0.933 | > 10000
EW-18 (Ewing sarcoma, suspension) | 0.981 | > 1200 | 0.925 | > 100 | 0.808 | 11300 | 0.978 | > 30000 | 0.985 | > 2560 | 0.538 | 410 | 0.906 | > 32000 | 0.976 | > 10000
KU812 (chronic myeloid leukaemia, suspension) | 0.319 | 24.7 | 0.384 | 3.09 | 0.526 | 1470 | 0.952 | > 30000 | 0.771 | 897 | 0.759 | 1640 | 0.682 | 6130 | 0.637 | 1440
DEL (lymphoid neoplasm, suspension) | 0.337 | 29.5 | 0.558 | 8.67 | 0.932 | > 20000 | 0.802 | 11300 | 0.744 | 663 | 0.734 | 1240 | 0.766 | 9480 | 0.986 | > 10000
OCI-M1 (acute myeloid leukaemia, suspension) | 0.616 | 144 | 0.964 | > 100 | 0.754 | 5350 | 0.972 | > 30000 | 0.678 | 439 | 0.733 | 1210 | 0.99 | > 32000 | 0.898 | 7240
NCI-H1581 (large cell lung carcinoma, semi-adherent) | 0.704 | 266 | 0.906 | > 100 | 0.933 | > 20000 | 0.972 | > 30000 | 0.916 | > 2560 | 0.719 | 1260 | 0.988 | > 32000 | 0.859 | 7270
MEG-01 (chronic myeloid leukaemia, suspension) | 0.666 | 211 | 0.858 | 74.4 | 0.926 | > 20000 | 0.987 | > 30000 | 0.78 | 991 | 0.239 | 59.5 | 0.936 | > 32000 | 0.68 | 1920
COR-L88 (small cell lung carcinoma, adherent) | 0.82 | 862 | 0.985 | > 100 | 0.911 | > 20000 | 0.974 | > 30000 | 0.98 | > 2560 | 0.756 | 2050 | 0.986 | > 32000 | 0.97 | > 10000
WSU-NHL (lymphoid neoplasm, suspension) | 0.957 | > 1200 | 0.969 | > 100 | 0.986 | > 20000 | 0.985 | > 30000 | 0.971 | > 2560 | 0.365 | 143 | 0.717 | 7530 | 0.909 | > 10000
697 (lymphoblastic leukaemia, suspension) | 0.325 | 27.3 | 0.457 | 4.89 | 0.784 | 6750 | 0.984 | > 30000 | 0.754 | 710 | 0.47 | 269 | 0.739 | 8120 | 0.832 | 4700
JVM-3 (lymphoid neoplasm, suspension) | 0.951 | > 1200 | 0.987 | > 100 | 0.969 | > 20000 | 0.82 | 17500 | 0.948 | > 2560 | 0.677 | 1010 | 0.886 | > 32000 | 0.66 | 1750
ST486 (Burkitt lymphoma, suspension) | 0.571 | 115 | 0.882 | 85 | 0.75 | 5890 | 0.982 | > 30000 | 0.777 | 913 | 0.436 | 218 | 0.638 | 4580 | 0.873 | 7770
MOLM-13 (acute myeloid leukaemia, suspension) | 0.373 | 34.3 | 0.764 | 34.2 | 0.716 | 4870 | 0.979 | > 30000 | 0.775 | 949 | 0.029 | < 20 | 0.862 | 24600 | 0.907 | > 10000
NKM-1 (acute myeloid leukaemia, suspension) | 0.783 | 522 | 0.911 | > 100 | 0.717 | 5250 | 0.822 | 18200 | 0.859 | 2220 | 0.051 | < 20 | 0.838 | 22500 | 0.692 | 2210
NCI-H1838 (lung adenocarcinoma, adherent) | 0.9 | > 1200 | 0.965 | > 100 | 0.986 | > 20000 | 0.981 | > 30000 | 0.908 | > 2560 | 0.879 | > 5120 | 0.963 | > 32000 | 0.913 | > 10000

Cell Line | AUC (JW-7-52-1) | IC50 (JW-7-52-1) [nM] | AUC (Rapamycin) | IC50 (Rapamycin) [nM] | AUC (Tubastatin A) | IC50 (Tubastatin A) [nM] | AUC (Temozolomide) | IC50 (Temozolomide) [nM] | AUC (Z-LLNle-CHO) | IC50 (Z-LLNle-CHO) [nM] | AUC (XL-880) | IC50 (XL-880) [nM] | AUC (IPA-3) | IC50 (IPA-3) [nM] | AUC (CI-1040) | IC50 (CI-1040) [nM]
KE-37 (lymphoblastic leukaemia, suspension) | 0.253 | 18.2 | 0.575 | 9.53 | 0.847 | 9760 | 0.994 | > 30000 | 0.686 | 459 | 0.619 | 626 | 0.602 | 3550 | 0.904 | 7690
GDM-1 (acute myeloid leukaemia, suspension) | 0.387 | 37.3 | 0.794 | 43.8 | 0.786 | 8220 | 0.982 | > 30000 | 0.769 | 928 | 0.079 | < 20 | 0.977 | > 32000 | 0.987 | > 10000
DU-4475 (breast, suspension) | 0.548 | 99 | 0.838 | 50.5 | 0.917 | > 20000 | 0.984 | > 30000 | 0.779 | 849 | 0.612 | 612 | 0.874 | 21500 | 0.244 | 136
KM-H2 (Hodgkin lymphoma, suspension) | 0.858 | 752 | 0.877 | 74.6 | 0.986 | > 20000 | 0.986 | > 30000 | 0.777 | 871 | 0.733 | 1300 | 0.867 | 21900 | 0.967 | > 10000
MS-1 (small cell lung carcinoma, suspension) | 0.744 | 341 | 0.986 | > 100 | 0.879 | 16800 | 0.983 | > 30000 | 0.99 | > 2560 | 0.594 | 562 | 0.954 | > 32000 | 0.979 | > 10000
CTV-1 (acute myeloid leukaemia, suspension) | 0.292 | 22.4 | 0.907 | 88.9 | 0.934 | > 20000 | 0.981 | > 30000 | 0.842 | 1310 | 0.491 | 304 | 0.716 | 7060 | 0.912 | 9400
ML-2 (acute myeloid leukaemia, suspension) | 0.565 | 111 | 0.923 | > 100 | 0.791 | 7920 | 0.979 | > 30000 | 0.679 | 474 | 0.609 | 614 | 0.849 | 20100 | 0.579 | 1000
P32-ISH (Burkitt lymphoma, suspension) | 0.527 | 87.3 | 0.883 | 62.1 | 0.793 | 6730 | 0.995 | > 30000 | 0.799 | 893 | 0.387 | 170 | 0.612 | 3740 | 0.953 | > 10000
TE-6 (oesophagus, adherent) | 0.838 | 1020 | 0.396 | 3.08 | 0.986 | > 20000 | 0.978 | > 30000 | 0.96 | > 2560 | 0.778 | 2440 | 0.845 | 29200 | 0.909 | > 10000
MPP-89 (mesothelioma, adherent) | 0.593 | 146 | 0.978 | > 100 | 0.894 | > 20000 | 0.887 | > 30000 | 0.842 | > 2560 | 0.673 | 1130 | 0.98 | > 32000 | 0.871 | > 10000
NCI-H23 (lung adenocarcinoma, adherent) | 0.583 | 126 | 0.987 | > 100 | 0.964 | > 20000 | 0.987 | > 30000 | 0.842 | 1760 | 0.8 | 2450 | 0.892 | > 32000 | 0.765 | 3610
NCI-H211 (small cell lung carcinoma, adherent) | 0.608 | 147 | 0.739 | 29.3 | 0.815 | 10600 | 0.978 | > 30000 | 0.986 | > 2560 | 0.639 | 764 | 0.803 | 15400 | 0.938 | > 10000
NCI-H1092 (small cell lung carcinoma, suspension) | 0.876 | > 1200 | 0.975 | > 100 | 0.977 | > 20000 | 0.984 | > 30000 | 0.85 | 1960 | 0.762 | 1840 | 0.977 | > 32000 | 0.973 | > 10000
HD-MY-Z (Hodgkin lymphoma, adherent) | 0.254 | 14.8 | 0.868 | 91.7 | 0.904 | > 20000 | 0.981 | > 30000 | 0.799 | 1230 | 0.539 | 409 | 0.806 | 16400 | 0.646 | 
KMOE-2 (acute myeloid leukaemia, suspension) | 0.715 | 280 | 0.978 | > 100 | 0.797 | 8290 | 0.981 | > 30000 | 0.827 | 1340 | 0.699 | 1080 | 0.933 | > 32000 | 0.212 | 101

A lower IC50 marks a more sensitive line; a limit (>, <) means that the fit lies beyond the doses tested. The AUC spans the tested range (256-fold, ending at the top dose) of the same fit; it is 1 without any effect and falls as sensitivity rises. For part of these data: Any top dose called inferred comes from the curve model; the source does not state it.
